In PMC8542387 (2021) one finds binding data, which are given here for 4 molecules.

Chains of the proteins cited; added tags and fusions are not shown.
UniProt Q9Y7K2: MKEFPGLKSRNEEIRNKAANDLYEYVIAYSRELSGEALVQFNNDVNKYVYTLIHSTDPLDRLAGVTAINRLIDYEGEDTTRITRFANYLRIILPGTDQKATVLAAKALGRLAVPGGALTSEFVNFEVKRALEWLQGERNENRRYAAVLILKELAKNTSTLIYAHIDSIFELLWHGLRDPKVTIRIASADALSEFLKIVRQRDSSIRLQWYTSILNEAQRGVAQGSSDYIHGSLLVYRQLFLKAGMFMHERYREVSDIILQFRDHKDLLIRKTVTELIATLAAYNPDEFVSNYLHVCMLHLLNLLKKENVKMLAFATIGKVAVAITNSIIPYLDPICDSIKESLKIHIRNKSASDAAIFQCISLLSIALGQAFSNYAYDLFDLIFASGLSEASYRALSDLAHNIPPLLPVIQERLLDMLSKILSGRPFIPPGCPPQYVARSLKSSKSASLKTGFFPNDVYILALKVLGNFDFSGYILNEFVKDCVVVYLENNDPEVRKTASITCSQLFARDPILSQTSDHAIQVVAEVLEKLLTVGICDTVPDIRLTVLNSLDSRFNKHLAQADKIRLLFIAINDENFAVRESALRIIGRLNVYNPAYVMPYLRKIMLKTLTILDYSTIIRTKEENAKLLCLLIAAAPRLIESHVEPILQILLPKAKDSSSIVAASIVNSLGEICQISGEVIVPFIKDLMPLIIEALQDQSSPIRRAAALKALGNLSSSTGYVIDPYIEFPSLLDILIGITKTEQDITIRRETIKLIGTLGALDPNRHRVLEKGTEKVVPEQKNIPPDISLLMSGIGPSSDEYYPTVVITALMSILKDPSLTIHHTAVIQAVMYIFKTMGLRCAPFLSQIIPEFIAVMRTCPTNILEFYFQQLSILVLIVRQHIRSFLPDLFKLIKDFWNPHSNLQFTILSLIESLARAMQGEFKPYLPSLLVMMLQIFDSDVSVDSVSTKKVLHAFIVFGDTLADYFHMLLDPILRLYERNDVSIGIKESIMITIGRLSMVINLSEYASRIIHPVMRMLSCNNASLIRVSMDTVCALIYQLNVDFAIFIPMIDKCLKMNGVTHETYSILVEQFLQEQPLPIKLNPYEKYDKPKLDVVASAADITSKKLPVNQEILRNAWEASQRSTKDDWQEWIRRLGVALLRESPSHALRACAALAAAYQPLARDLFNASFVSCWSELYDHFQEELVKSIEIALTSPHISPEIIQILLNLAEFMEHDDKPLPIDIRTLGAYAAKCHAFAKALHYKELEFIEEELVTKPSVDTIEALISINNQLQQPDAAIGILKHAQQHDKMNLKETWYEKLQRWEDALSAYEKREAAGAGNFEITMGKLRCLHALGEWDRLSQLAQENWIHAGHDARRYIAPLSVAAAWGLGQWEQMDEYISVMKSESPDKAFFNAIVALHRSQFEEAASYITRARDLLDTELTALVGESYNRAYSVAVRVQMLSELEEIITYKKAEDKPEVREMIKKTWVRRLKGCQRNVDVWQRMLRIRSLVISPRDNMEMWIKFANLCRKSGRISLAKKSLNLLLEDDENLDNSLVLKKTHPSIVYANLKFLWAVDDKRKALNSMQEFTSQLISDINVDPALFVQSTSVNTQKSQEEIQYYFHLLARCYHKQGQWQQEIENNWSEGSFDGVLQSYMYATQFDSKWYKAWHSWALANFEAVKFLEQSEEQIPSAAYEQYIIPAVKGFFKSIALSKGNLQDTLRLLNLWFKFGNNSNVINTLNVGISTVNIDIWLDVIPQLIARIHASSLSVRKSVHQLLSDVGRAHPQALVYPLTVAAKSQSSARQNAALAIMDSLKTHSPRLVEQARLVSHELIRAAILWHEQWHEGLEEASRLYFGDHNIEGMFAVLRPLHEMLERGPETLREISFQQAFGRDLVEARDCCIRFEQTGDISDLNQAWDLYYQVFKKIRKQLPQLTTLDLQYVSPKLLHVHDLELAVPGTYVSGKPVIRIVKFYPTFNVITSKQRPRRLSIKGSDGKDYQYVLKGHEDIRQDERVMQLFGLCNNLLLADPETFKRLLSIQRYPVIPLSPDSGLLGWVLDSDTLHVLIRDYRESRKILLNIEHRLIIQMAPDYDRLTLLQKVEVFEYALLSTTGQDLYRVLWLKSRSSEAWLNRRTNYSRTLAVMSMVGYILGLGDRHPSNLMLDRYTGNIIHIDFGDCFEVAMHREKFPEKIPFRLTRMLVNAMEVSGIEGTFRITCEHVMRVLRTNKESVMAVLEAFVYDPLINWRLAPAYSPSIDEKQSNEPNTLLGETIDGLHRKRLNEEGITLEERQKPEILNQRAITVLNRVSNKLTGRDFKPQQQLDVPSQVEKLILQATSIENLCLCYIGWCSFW

No constants are given. Whether binding was seen depends on the method and setting. Binding seen in cells or lysates may run through a third protein. Some results given as binding are weak or reduced against the parent protein; the word gives no strength. Tags and fused reporters may be left off the sequences shown.

To fix the notation:
B1: Mip1-myc (wild type) (protein, UniProt P87141 1-1313)
chain: MNDRISEVSGSSRARRSVLSYGTTETGSDRYTENSNIATENGVDTASSMIDGIQSGFPQPRHGFEEEYNNAEYINMLEQVFYMYYTDKRHRGVISKKNAEPTETIHDWRMRERLKTVSAALLVCLNIGVDPPDVIKPNPAAKYECWIDPFSLPASKALEAIGKNLQQQYETLSMRTRYRHYLDPAIEEVKKLCIGQRRNAKEERILFHYNGHGVPMPTASGEIWVFNKNYTQYIPVSLYDLQSWLGAPCIYVYDCSAAGNIIVNFNRFAEQRDKEALRIAKQNPNVLAMPSHTSCIQLAACGPKETLPMNPDLPADLFTSCLTSPIEISVRWYVLQNPFPNKLNLNMLLKIPGRLQDRRTPLGELNWIFTAITDTIAWNVFPKHLFRRLFRQDLMVAALFRNFLLAERIMLVHSCHPQSSPELPPTHDHPMWNSWDLAIDNCLSQLPDMLDAESKGIAYEYKHSTFFSEQLTAFEVWLSQGLISRKPPDQLPLVLQVLLSQVHRLRALILLSKFLDLGVWAVDLALSIGIFPYVLKLLQSPAIELKPVLVFIWARILAVDDSCQADLLKDNGYGYFVQILNPNSSIFPSSNISEHRAMCAFILSVFCRGFPQGQLACLNPQVLSHCLSHLNSPDSLLRQWACLCISQLWENYSEAKWSGTRDNAHVKLAEIIVDSVPEVRASVLTAFTTFLGFPEKTEEVVAVETYIAIAALAALSDASPLVRHELVIFLSHFVVNYKKQLMVVAYESSLADILEKKNHNSISASTIYETVWQAVLVLAADPSIEISLAAEAIINYVYQSMLNSELRESFLAFLLQHLPALHKASLSKDTDTNSVTSDPKPHPFVPSVSENKILNRSFSLTRSLKGLALSLAGSDRASELLSLNGENKPAESNLNHLTSAKVPGPPAFNELEYQSELDMPLTSYLFDWSRKYFTEPQMRPNEDDEPGSICYNQRLWRRNRNEKLIYRTRPLAEYSTNGRWNQQLMTFNNTIAPRKLMFHQFEDQLITLGDKDIIQVWDWRRNRCLNSFKTSASATTNVTDMQLLNEDDVALLMTGSSDGTIKLYRDYENEKVELVTSWNSLSDLVFGDRNASLLMSWQQNCGHLLVAGDVRVIRIWDASKEICYANLPVRSSNSITSLTSDLVGCNIIVAGFSDGVLRVYDKRLPARDSLTDVWKEHSSEIVNVEMQSSGMRELISASSDGEVKLWDIRMNHSLQTFSTDNSGLTSLTVHSHAPVYATGSSNQSIKIWDTLGQNINTFRENPRFLNQPKPSSLMCLKFHPHHLLLACGDNTDSRVNLYSCTKNEIHTDSPNEF
B2: Mip1-Y533A-myc (protein, UniProt P87141 1-1313)
chain: MNDRISEVSGSSRARRSVLSYGTTETGSDRYTENSNIATENGVDTASSMIDGIQSGFPQPRHGFEEEYNNAEYINMLEQVFYMYYTDKRHRGVISKKNAEPTETIHDWRMRERLKTVSAALLVCLNIGVDPPDVIKPNPAAKYECWIDPFSLPASKALEAIGKNLQQQYETLSMRTRYRHYLDPAIEEVKKLCIGQRRNAKEERILFHYNGHGVPMPTASGEIWVFNKNYTQYIPVSLYDLQSWLGAPCIYVYDCSAAGNIIVNFNRFAEQRDKEALRIAKQNPNVLAMPSHTSCIQLAACGPKETLPMNPDLPADLFTSCLTSPIEISVRWYVLQNPFPNKLNLNMLLKIPGRLQDRRTPLGELNWIFTAITDTIAWNVFPKHLFRRLFRQDLMVAALFRNFLLAERIMLVHSCHPQSSPELPPTHDHPMWNSWDLAIDNCLSQLPDMLDAESKGIAYEYKHSTFFSEQLTAFEVWLSQGLISRKPPDQLPLVLQVLLSQVHRLRALILLSKFLDLGVWAVDLALSIGIFPAVLKLLQSPAIELKPVLVFIWARILAVDDSCQADLLKDNGYGYFVQILNPNSSIFPSSNISEHRAMCAFILSVFCRGFPQGQLACLNPQVLSHCLSHLNSPDSLLRQWACLCISQLWENYSEAKWSGTRDNAHVKLAEIIVDSVPEVRASVLTAFTTFLGFPEKTEEVVAVETYIAIAALAALSDASPLVRHELVIFLSHFVVNYKKQLMVVAYESSLADILEKKNHNSISASTIYETVWQAVLVLAADPSIEISLAAEAIINYVYQSMLNSELRESFLAFLLQHLPALHKASLSKDTDTNSVTSDPKPHPFVPSVSENKILNRSFSLTRSLKGLALSLAGSDRASELLSLNGENKPAESNLNHLTSAKVPGPPAFNELEYQSELDMPLTSYLFDWSRKYFTEPQMRPNEDDEPGSICYNQRLWRRNRNEKLIYRTRPLAEYSTNGRWNQQLMTFNNTIAPRKLMFHQFEDQLITLGDKDIIQVWDWRRNRCLNSFKTSASATTNVTDMQLLNEDDVALLMTGSSDGTIKLYRDYENEKVELVTSWNSLSDLVFGDRNASLLMSWQQNCGHLLVAGDVRVIRIWDASKEICYANLPVRSSNSITSLTSDLVGCNIIVAGFSDGVLRVYDKRLPARDSLTDVWKEHSSEIVNVEMQSSGMRELISASSDGEVKLWDIRMNHSLQTFSTDNSGLTSLTVHSHAPVYATGSSNQSIKIWDTLGQNINTFRENPRFLNQPKPSSLMCLKFHPHHLLLACGDNTDSRVNLYSCTKNEIHTDSPNEF
B3: Mip1-R504A-myc (protein, UniProt P87141 1-1313)
chain: MNDRISEVSGSSRARRSVLSYGTTETGSDRYTENSNIATENGVDTASSMIDGIQSGFPQPRHGFEEEYNNAEYINMLEQVFYMYYTDKRHRGVISKKNAEPTETIHDWRMRERLKTVSAALLVCLNIGVDPPDVIKPNPAAKYECWIDPFSLPASKALEAIGKNLQQQYETLSMRTRYRHYLDPAIEEVKKLCIGQRRNAKEERILFHYNGHGVPMPTASGEIWVFNKNYTQYIPVSLYDLQSWLGAPCIYVYDCSAAGNIIVNFNRFAEQRDKEALRIAKQNPNVLAMPSHTSCIQLAACGPKETLPMNPDLPADLFTSCLTSPIEISVRWYVLQNPFPNKLNLNMLLKIPGRLQDRRTPLGELNWIFTAITDTIAWNVFPKHLFRRLFRQDLMVAALFRNFLLAERIMLVHSCHPQSSPELPPTHDHPMWNSWDLAIDNCLSQLPDMLDAESKGIAYEYKHSTFFSEQLTAFEVWLSQGLISRKPPDQLPLVLQVLLSQVHALRALILLSKFLDLGVWAVDLALSIGIFPYVLKLLQSPAIELKPVLVFIWARILAVDDSCQADLLKDNGYGYFVQILNPNSSIFPSSNISEHRAMCAFILSVFCRGFPQGQLACLNPQVLSHCLSHLNSPDSLLRQWACLCISQLWENYSEAKWSGTRDNAHVKLAEIIVDSVPEVRASVLTAFTTFLGFPEKTEEVVAVETYIAIAALAALSDASPLVRHELVIFLSHFVVNYKKQLMVVAYESSLADILEKKNHNSISASTIYETVWQAVLVLAADPSIEISLAAEAIINYVYQSMLNSELRESFLAFLLQHLPALHKASLSKDTDTNSVTSDPKPHPFVPSVSENKILNRSFSLTRSLKGLALSLAGSDRASELLSLNGENKPAESNLNHLTSAKVPGPPAFNELEYQSELDMPLTSYLFDWSRKYFTEPQMRPNEDDEPGSICYNQRLWRRNRNEKLIYRTRPLAEYSTNGRWNQQLMTFNNTIAPRKLMFHQFEDQLITLGDKDIIQVWDWRRNRCLNSFKTSASATTNVTDMQLLNEDDVALLMTGSSDGTIKLYRDYENEKVELVTSWNSLSDLVFGDRNASLLMSWQQNCGHLLVAGDVRVIRIWDASKEICYANLPVRSSNSITSLTSDLVGCNIIVAGFSDGVLRVYDKRLPARDSLTDVWKEHSSEIVNVEMQSSGMRELISASSDGEVKLWDIRMNHSLQTFSTDNSGLTSLTVHSHAPVYATGSSNQSIKIWDTLGQNINTFRENPRFLNQPKPSSLMCLKFHPHHLLLACGDNTDSRVNLYSCTKNEIHTDSPNEF
B4: Mip1-R358A-myc (protein, UniProt P87141 1-1313)
chain: MNDRISEVSGSSRARRSVLSYGTTETGSDRYTENSNIATENGVDTASSMIDGIQSGFPQPRHGFEEEYNNAEYINMLEQVFYMYYTDKRHRGVISKKNAEPTETIHDWRMRERLKTVSAALLVCLNIGVDPPDVIKPNPAAKYECWIDPFSLPASKALEAIGKNLQQQYETLSMRTRYRHYLDPAIEEVKKLCIGQRRNAKEERILFHYNGHGVPMPTASGEIWVFNKNYTQYIPVSLYDLQSWLGAPCIYVYDCSAAGNIIVNFNRFAEQRDKEALRIAKQNPNVLAMPSHTSCIQLAACGPKETLPMNPDLPADLFTSCLTSPIEISVRWYVLQNPFPNKLNLNMLLKIPGRLQDARTPLGELNWIFTAITDTIAWNVFPKHLFRRLFRQDLMVAALFRNFLLAERIMLVHSCHPQSSPELPPTHDHPMWNSWDLAIDNCLSQLPDMLDAESKGIAYEYKHSTFFSEQLTAFEVWLSQGLISRKPPDQLPLVLQVLLSQVHRLRALILLSKFLDLGVWAVDLALSIGIFPYVLKLLQSPAIELKPVLVFIWARILAVDDSCQADLLKDNGYGYFVQILNPNSSIFPSSNISEHRAMCAFILSVFCRGFPQGQLACLNPQVLSHCLSHLNSPDSLLRQWACLCISQLWENYSEAKWSGTRDNAHVKLAEIIVDSVPEVRASVLTAFTTFLGFPEKTEEVVAVETYIAIAALAALSDASPLVRHELVIFLSHFVVNYKKQLMVVAYESSLADILEKKNHNSISASTIYETVWQAVLVLAADPSIEISLAAEAIINYVYQSMLNSELRESFLAFLLQHLPALHKASLSKDTDTNSVTSDPKPHPFVPSVSENKILNRSFSLTRSLKGLALSLAGSDRASELLSLNGENKPAESNLNHLTSAKVPGPPAFNELEYQSELDMPLTSYLFDWSRKYFTEPQMRPNEDDEPGSICYNQRLWRRNRNEKLIYRTRPLAEYSTNGRWNQQLMTFNNTIAPRKLMFHQFEDQLITLGDKDIIQVWDWRRNRCLNSFKTSASATTNVTDMQLLNEDDVALLMTGSSDGTIKLYRDYENEKVELVTSWNSLSDLVFGDRNASLLMSWQQNCGHLLVAGDVRVIRIWDASKEICYANLPVRSSNSITSLTSDLVGCNIIVAGFSDGVLRVYDKRLPARDSLTDVWKEHSSEIVNVEMQSSGMRELISASSDGEVKLWDIRMNHSLQTFSTDNSGLTSLTVHSHAPVYATGSSNQSIKIWDTLGQNINTFRENPRFLNQPKPSSLMCLKFHPHHLLLACGDNTDSRVNLYSCTKNEIHTDSPNEF

The target in the assay is FLAG-tagged Tor2 kinase (S. pombe) (UniProt Q9Y7K2). The assay can be described thus: co-IP; FLAG-Tor2 immunopurified from S. pombe cell lysate on anti-FLAG M2 affinity gel, 2 h at 4°C, washed with lysis buffer; co-purified Mip1-myc by immunoblot.
B1: the binding entry was “binds”.
With B2 the entry was “binds”.
With B3 the entry was “binds”; with B4, “binds”.
